Assay results taken from publication PMC4336329 (PLoS ONE, 2015).
Among all 310,000 compounds or so, about 2,200 (0.71%) showed an effect of 50% or more. The effect is printed as a negative number. The list shows a part of the results.

Molecular target: human ether-à-go-go-related gene (hERG) potassium channel (human, UniProt Q12809)
Assay: primary screen, population patch clamp on CHO cells stably expressing hERG

human ether-à-go-go-related gene (hERG) potassium channel, sequence (Q12809 whole entry, looked up): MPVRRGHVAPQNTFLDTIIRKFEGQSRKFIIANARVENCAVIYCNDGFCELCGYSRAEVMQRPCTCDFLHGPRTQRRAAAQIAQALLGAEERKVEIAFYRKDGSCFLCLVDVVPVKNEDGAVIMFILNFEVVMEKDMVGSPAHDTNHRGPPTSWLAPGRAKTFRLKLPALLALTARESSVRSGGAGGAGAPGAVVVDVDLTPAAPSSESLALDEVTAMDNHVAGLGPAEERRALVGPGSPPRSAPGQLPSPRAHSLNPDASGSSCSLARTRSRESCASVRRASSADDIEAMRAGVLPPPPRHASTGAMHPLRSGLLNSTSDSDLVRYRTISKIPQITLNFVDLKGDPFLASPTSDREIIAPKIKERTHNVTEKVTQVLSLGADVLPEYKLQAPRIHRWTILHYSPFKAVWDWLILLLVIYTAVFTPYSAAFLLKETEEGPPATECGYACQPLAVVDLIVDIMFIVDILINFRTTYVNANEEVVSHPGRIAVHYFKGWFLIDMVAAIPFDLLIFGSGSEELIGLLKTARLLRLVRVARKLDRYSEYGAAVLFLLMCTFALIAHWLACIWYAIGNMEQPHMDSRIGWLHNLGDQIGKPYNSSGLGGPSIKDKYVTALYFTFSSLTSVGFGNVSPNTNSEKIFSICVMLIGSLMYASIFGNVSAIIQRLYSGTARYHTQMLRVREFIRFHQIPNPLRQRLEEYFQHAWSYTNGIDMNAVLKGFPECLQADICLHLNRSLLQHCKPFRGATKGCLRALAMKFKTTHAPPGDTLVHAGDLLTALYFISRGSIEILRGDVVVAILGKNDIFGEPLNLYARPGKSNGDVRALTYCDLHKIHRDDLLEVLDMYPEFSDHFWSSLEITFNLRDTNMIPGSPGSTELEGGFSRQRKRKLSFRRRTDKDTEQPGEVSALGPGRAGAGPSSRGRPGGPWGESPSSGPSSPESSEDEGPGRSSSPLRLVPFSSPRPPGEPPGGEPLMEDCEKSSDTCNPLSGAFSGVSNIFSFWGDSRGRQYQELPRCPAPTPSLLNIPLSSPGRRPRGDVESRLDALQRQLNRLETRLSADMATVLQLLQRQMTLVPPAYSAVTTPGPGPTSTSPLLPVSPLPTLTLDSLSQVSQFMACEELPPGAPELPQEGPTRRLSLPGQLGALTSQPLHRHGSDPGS

SMILES | hERG current change (%, negative = inhibition) at 1uM [%]
Cn1c(CN2CCN(c3ccc(Cl)cc3)CC2)nc2ccccc21 | -4.19
CSC1=N/C(=C\c2ccccc2Cl)C(=O)N1N(C)C | 1.86
Cc1cccc(NC(=O)COc2nsnc2N2CCOCC2)c1 | 9.24
COCCCNC(=O)C(=O)NCC1CCCN1S(=O)(=O)c1cccs1 (centres unmarked) | -0.0536
COc1ccc(-c2onc(C)c2-c2ccc3c(c2)OCCO3)c(O)c1 | 5.16
COc1ccc(CCNC(=O)c2cc(COc3c(F)cccc3F)on2)c(OC)c1 | 2.31
O=C(CCc1nc2ccccc2c(=O)[nH]1)OCC(=O)N1CCN(S(=O)(=O)c2ccccc2)CC1 | 8.41
COc1cc(CNC(C)(C)CO)cc(Br)c1OCc1ccc(Cl)cc1.Cl | 3.94
COc1ccc(N(CC(=O)NCCSC(C)(C)C)S(C)(=O)=O)c(OC)c1 | 16
COc1ccc(S(=O)(=O)n2oc(=O)cc2-c2ccccc2)cc1 | 3.95
CCOc1ccccc1N(CC(=O)N1CCC(C(N)=O)CC1)S(=O)(=O)c1ccc(SC)cc1 | 15
COc1cc(-c2nnn(CC#N)n2)ccc1OCc1ccccc1 | 5.82
O=C(Nc1ccccc1)C1=C[C@@H](c2ccc(Br)cc2)C[C@@H](OCCCCO)O1 | 8.56
CC1=NN(c2cccc(F)c2)C(=O)/C1=C/c1ccc(N(C)C)cc1 | 3.18
COc1ccc(-c2cc(-c3ccc(C)cc3)n[nH]2)c(O)c1 | 14.6
Cn1c(=O)oc2cc(S(=O)(=O)NCc3ccco3)ccc21 | 6.5
Cc1occc1C(=O)N/N=C/c1ccc(N(C)C)cc1 | 15.7
CCOC(=O)CC(=O)CSc1nc(CC)c(C)cc1C#N | 15
CN1CCN(C(=O)Nc2cccc3ccccc23)CC1 | 12.7
CC(=O)O[C@H]1C(=O)[C@@]2(C)C([C@H](OC(=O)c3ccccc3)[C@]3(O)C[C@H](O)C(C)=C1C3(C)C)[C@]1(OC(C)=O)CO[C@@H]1C[C@H]2O (some centres unmarked) | 7.12
CC1c2cccn2CCN1S(=O)(=O)c1ccc(F)cc1 (centres unmarked) | 3.57
Cc1ccc2c(c1)nnn2C1CCN(C(=O)c2ccccc2F)CC1 | 6.24
O=c1oc2ccccc2n1CSc1nc2ccccc2s1 | 9.16

SMILES | hERG current change (%, negative = inhibition) at 1uM [%]
COc1ccc(/C=N/N=C/c2ccc(OC)cc2)cc1 | 10.2
Cc1c(Cl)cccc1-n1ccnc1SCC(=O)O | 18.4
O=C(CN1CCC(n2nnc3cc(F)ccc32)CC1)NC1CC1 | 3.28
COc1ccc(C)cc1-n1c(SCC(=O)NCC2CCCO2)nc2c([nH]c3ccccc32)c1=O (centres unmarked) | 2.13
Cc1ccccc1-c1noc(-c2ccc(Cl)cc2)n1 | 19.7
CCC(C)N(C)Cc1cccc(C2(O)CCN(S(=O)(=O)c3ccc(F)c(C)c3)CC2)c1 (centres unmarked) | -71.2
CCOC(=O)c1ccccc1N/C=C/C(=O)c1ccccc1 | 6.16
CSCCC(NC(=O)c1ccco1)C(=O)NCCc1ccc(F)cc1 (centres unmarked) | 4.48
Cc1[nH]c2ccccc2c1/C=N/NC(=O)CNC(=O)c1ccc2c(c1)OCCO2 | 12.9
COCCN(CC(=O)Nc1cccc(C)c1C)C(=O)c1cc(-c2ccncc2)nc2ccccc12 | -7.99
CCOC(=O)C1CCCN(CC(=O)NC2CC2)C1.O=C(O)C(=O)O (centres unmarked) | -5.28
Cc1sc(NC(=O)CS(=O)(=O)c2ccccc2)c(C#N)c1C | 8.45
COc1cccc(NC(=O)Cc2ccccc2)c1 | 12.6
S=C(NCC1CCCO1)N1CCc2ccccc2C1 (centres unmarked) | 9.65
Cc1nc2c(-c3ccccc3)c(C)nn2c(C)c1CCC(=O)N1CCOCC1 | -13.1
CC1(C)Cc2nc3sc(C(N)=O)c(N)c3cc2CO1 | 12.7
O=C(Nc1nc2nccc(-c3ccccc3)n2n1)c1ccc(F)cc1 | 23.5
S=C(Nc1ccc(Br)cc1Cl)N1CCN(c2ccccn2)CC1 | -3.09
CCCOc1ccc(-c2c(C(=O)N/N=C(\C)c3ccco3)nnn2-c2nonc2N)cc1 | 16.7
COc1cnc(-c2ccccn2)nc1Sc1c(Cl)cccc1Cl | 9.34
C[C@H]1C(=O)O[C@@H]2CCN3CC=C(COC(=O)[C@](C)(O)[C@]1(C)O)[C@H]23 | 2.43
O=C(COc1cccc(OC(F)F)c1)Nc1ccc(SC(F)F)cc1 | 2.87
COc1ccc(-c2csc(N3C(=O)C4C5c6ccccc6C(c6ccccc65)[C@@H]4C3=O)n2)cc1 (some centres unmarked) | 8.02

SMILES | hERG current change (%, negative = inhibition) at 1uM [%]
CC(C)CNC(=O)CN(C1CCCCC1)S(=O)(=O)c1ccccc1 | 8.23
O=C(CSc1n[nH]c(-c2cccnc2)n1)Nc1ccnc2ccccc12 | 5.98
CCS(=O)(=O)c1nc(S(=O)(=O)c2ccc(Cl)cc2)c(NCCN2CCOCC2)s1 | 7.96
Clc1ccc(-c2nnc3c4ccccc4nc(N4CCOCC4)n23)cc1Cl | -15.9
CCN1CCN(C(=O)CCN2C(=O)c3ccccc3C2=O)CC1 | 1.35
Cc1ccc2c(c1)N(CCC(=O)NC1CCCCC1)C(=O)CO2 | 22.6
Cc1nc(C)n(C(C)CNS(=O)(=O)c2ccc(C)c(C)c2)n1 (centres unmarked) | 18.2
O=C(O)/C=C/C(=O)Nc1ccc(Cl)cc1C(=O)c1ccccc1 | -2.2
Cc1ncc(CO)c2c1OC(C)(C)OC2 | 14.1
Cc1ccc(-c2nc3ccccc3c(C(=O)NCc3cccs3)c2C)cc1 | 5.24
Cc1ccc(OCCCC(=O)Nc2nnc(C3CCCO3)s2)c(C)c1 (centres unmarked) | 7.57
OC(c1cc(-c2ccc(Cl)cc2)nc2ccccc12)C1CCCCN1 (centres unmarked) | -6.99
COc1cc(C)nc(NC(=O)NC(=O)c2ccc(C(F)(F)F)cc2)n1 | 18
Cc1cc(C)n2nc(SCc3cccc(F)c3)nc2n1 | 11.8
COc1ccc(CNCCC2(C(C)C)CCOC(C)(C)C2)cc1 (centres unmarked) | 3.31
CC(NS(=O)(=O)c1cccc(C(=O)NCc2ccncc2)c1)c1ccccc1 (centres unmarked) | 9.66
Cc1cc(OCC(O)CN2C(C)CCCC2C)ccc1C(C)C (centres unmarked) | 5.67
COc1ccc(NS(=O)(=O)c2ccc(-n3nnc4ccccc43)c([N+](=O)[O-])c2)cc1 | 3.82
S=C(NCc1ccco1)NCC1CCCO1 (centres unmarked) | 0.9
Cc1ccsc1C(=O)NNC(=S)NCC(C)C | 6.97
COc1cc2c(cc1OC)C(C)N(CC(=O)Nc1ccc(S(=O)(=O)N3CCCC3)cc1)CC2 (centres unmarked) | 11.9
CCOC(=O)CC(NC(=O)c1ccco1)c1ccccc1Cl (centres unmarked) | 5.6
CC1CCN(C2=NC(=O)/C(=C/c3ccccc3F)S2)CC1 | 2.81

SMILES | hERG current change (%, negative = inhibition) at 1uM [%]
CC1=NCCN1CCNC(=O)Nc1cc(C)cc(C)c1 | 7.02
Cc1ccc(C(=O)C(C)Oc2ccc3ccc(=O)oc3c2)cc1 (centres unmarked) | 11.5
Cc1noc(C)c1C(=O)Nc1nc2ccc(F)cc2s1 | 2.2
CCc1nnc(NC(=O)CSc2nnc(C)n2CC2CCCO2)s1 (centres unmarked) | 11
Cc1ncc(CO)c2c1Oc1nc(-c3ccccc3)nc(SCC(=O)N3CCOCC3)c1C2 | 11.4
COc1ccc(CNC(=O)[C@H](NC(=O)C2CCN(C(=O)[C@@H](N)CCSC)CC2)C(C)C)cc1 | 4.4
COCCNC(=O)CSc1nc2nn(-c3ccccc3)c(=O)c-2c2n1CCCCC2 | 17
CC(=O)C(C(c1ccccc1)c1c[nH]c2ccccc12)[N+](=O)[O-] (centres unmarked) | 11.3
O=C(c1ccc(-n2cncn2)c([N+](=O)[O-])c1)N1CCN(S(=O)(=O)c2ccc(F)c(F)c2)CC1 | -28.8
CCCCNC(=O)C1CC(=O)N(CCc2ccccc2)C1 (centres unmarked) | 11.2
Cc1ccc([N+](=O)[O-])cc1N1C(=O)CS/C1=N\NC(=O)c1cccnc1 | 9.91
COc1ccc(N=C2SC(CC(=O)Nc3ccccc3)C(=O)N2CC2CCCO2)cc1 (centres unmarked) | 8.68
O=C(Nc1nnc(C2CC2)s1)C1CCCCN1S(=O)(=O)c1ccccc1 (centres unmarked) | 3.65
CC(Sc1nncn1C)C(=O)Nc1nnc(C(C)C)s1 (centres unmarked) | 6.33
COc1cnc(-c2ccccn2)nc1Sc1ccc(C)cc1 | 18.2
O=C(Nc1ccc(N2CCCC2)c(Cl)c1)c1ccc([N+](=O)[O-])cc1 | 20.1
Cc1cc(C(=O)Nc2ccc(F)cc2)c2ccccc2n1 | 6.95
CCN(CC)CCNC(=O)c1ccc(NC(=O)C2CCN(S(=O)(=O)c3ccc4c(c3)OCCO4)CC2)cc1 | 24.6
CCOC(=O)c1cnc2c(OC)cccc2c1N1CC(C)CC(C)C1 (centres unmarked) | 7.23
[O-][n+]1ccc(C2CC2)cc1 | 8.66
